{"source": "ChEMBL document CHEMBL4888484", "about": "“Replenishing the malaria drug discovery pipeline: Screening and hit evaluation of the MMV Hit Generation Library 1 (HGL1) against asexual blood stage Plasmodium falciparum ,using a nano luciferase reporter read-out” (2022)", "note": "Out of some 150,000 compounds screened, about 540 (0.36%) showed an effect of 50% or more. This is one part of the list.", "data": [{"test_system": "Plasmodium falciparum", "test": "Primary screen in NF54 nanoGlo assay, in single point, at 2uM, 72h; a lower Z score goes with more inhibition", "format": "functional, Erythrocyte", "settings": "timepoint 72 hour", "units": {"% Inhibition": "%"}, "values": [{"smiles": "Cc1nnc2n(CCOc3ccc(F)cc3)c3ccccc3n2c1=O", "% Inhibition": -8, "Z score": 1.54}, {"smiles": "COc1c(F)c(F)cc(C(=O)N2CC3CC2CS3(=O)=O)c1F", "note": "(configuration not stated)", "% Inhibition": -10, "Z score": 1.19}, {"smiles": "CCC(C(N)=O)N1CCCC1c1cccc(N(C)C)c1", "note": "(configuration not stated)", "% Inhibition": -3, "Z score": 0.53}, {"smiles": "CC1CN(C(=O)c2ccc3[nH]c(=O)[nH]c3c2)C1c1ccccc1", "note": "(configuration not stated)", "% Inhibition": -3, "Z score": 0.52}, {"smiles": "N#Cc1cccnc1NCc1cccnc1-n1cnc2ccccc21", "% Inhibition": 4, "Z score": -0.59}, {"smiles": "CN(Cc1cnccn1)C(=O)NC1CCCC1c1ccc(Cl)cc1", "note": "(configuration not stated)", "% Inhibition": -29, "Z score": 3.34}, {"smiles": "NC(=O)c1cnn(CC(=O)Nc2cccc(C(=O)NC3CC3)c2)c1", "% Inhibition": 0, "Z score": 0.01}, {"smiles": "O=C(CC1CCOCC1)NC1CNCCC1c1ccc(F)c(F)c1", "note": "(configuration not stated)", "% Inhibition": -10, "Z score": 1.58}, {"smiles": "Cc1nc2n(n1)CCC[C@@H]2NC(=O)NCc1csc(C(C)(C)C)n1", "% Inhibition": 1, "Z score": -0.08}, {"smiles": "O=C1CCCN1c1ccc(NS(=O)(=O)c2cccnc2)cc1", "% Inhibition": -17, "Z score": 2.52}, {"smiles": "CCc1nc2ccc(-c3noc(-c4ccsc4)n3)cc2n1CC", "% Inhibition": -19, "Z score": 3.3}, {"smiles": "Fc1ccc(CN2CCC3(CCO3)CC2)cc1F", "% Inhibition": -8, "Z score": 1.24}, {"smiles": "C[C@@H]1CN(C[C@@H]2CN(C(=O)CCc3cccs3)C[C@@H]2CO)C[C@H](C)O1", "% Inhibition": -3, "Z score": 0.3}, {"smiles": "CNc1snc(C)c1C(=O)OCc1cn2ccccc2c1C#N", "% Inhibition": -9, "Z score": 1.78}, {"smiles": "C/C(=C/c1scc(-c2ccccc2)[n+]1-c1ccccc1)Nc1ccc(C)cc1", "% Inhibition": -7, "Z score": 1.33}, {"smiles": "COc1ccc(NC(=O)Cn2ccnc2-c2ccnc(N3CCOCC3)c2)cc1OC", "% Inhibition": 11, "Z score": -1.28}, {"smiles": "O=C(NC[C@H]1CCCCS1(=O)=O)N1CC(F)C1", "% Inhibition": -1, "Z score": 0.21}, {"smiles": "Cc1ccc(NS(=O)(=O)c2cc(-c3nc(C)cs3)n(C)c2C)c(C)c1", "% Inhibition": -1, "Z score": 0.09}, {"smiles": "CC1=C(C(=O)Nc2ccc3nc(N4CCCC4)sc3c2)CCCO1", "% Inhibition": -9, "Z score": 1.24}, {"smiles": "CC(C)N(C)S(=O)(=O)NCCCn1ccccc1=O", "% Inhibition": -9, "Z score": 1.2}, {"smiles": "Cc1cccc(CN2CCN(C)[C@H](c3ccccc3)C2)n1", "% Inhibition": 1, "Z score": -0.15}, {"smiles": "CN(c1cccc(C(=O)NCc2ccc(N3CCOCC3)cc2)c1)S(C)(=O)=O", "% Inhibition": -4, "Z score": 0.5}, {"smiles": "Cc1occc1C(=O)NCC(=O)NCC1(O)CCCCCC1", "% Inhibition": -9, "Z score": 1.19}, {"smiles": "CCOc1ccccc1Cn1nnnc1N1CCCOCC1", "% Inhibition": 11, "Z score": -1.1}, {"smiles": "O=C(CCCS(=O)(=O)Cc1ccccc1)Nc1ccc(F)cc1", "% Inhibition": -3, "Z score": 0.58}, {"smiles": "Nc1nc(N2CCN(c3ccc(F)c(Cl)c3)CC2)cc([C@H]2C[C@@H](N)C2)n1", "% Inhibition": 49, "Z score": -3.16}, {"smiles": "CC(O)CNC(=NCC1CCCO1)NCc1ccccc1", "note": "(configuration not stated)", "% Inhibition": -5, "Z score": 0.66}, {"smiles": "CC[C@H]1CN(Cc2ccc(Cn3cccn3)cc2)CCN1C(C)C", "% Inhibition": -11, "Z score": 1.37}, {"smiles": "Cc1cc(C(N)=O)c(-c2cccc(C(=O)N3C[C@@H](C)O[C@@H](C)C3)c2)nc1C", "% Inhibition": -9, "Z score": 1.19}, {"smiles": "COc1cccc(C[C@]2(C(=O)O)CCCN(Cc3cccnc3)C2)c1", "% Inhibition": -11, "Z score": 0.99}, {"smiles": "Cc1onc(-c2ccccn2)c1C(=O)NCCc1c[nH]c2ccccc12", "% Inhibition": 7, "Z score": -1.24}, {"smiles": "C[C@H]1CCc2nn(Cc3cccnc3)c(=O)cc2C1", "% Inhibition": -9, "Z score": 1.18}, {"smiles": "CC(C)N(CC1CC2C=CC1C2)C(=O)c1cccc(OCC(N)=O)c1", "note": "(configuration not stated)", "% Inhibition": -10, "Z score": 1.38}, {"smiles": "CC(C)(C)NC(=O)c1coc(COc2ccc3ncccc3c2)n1", "% Inhibition": -9, "Z score": 0.86}, {"smiles": "O=C(c1cccc(-n2cnnn2)c1)N1CCCC[C@H](c2ccccc2)C1", "% Inhibition": -7, "Z score": 1.3}, {"smiles": "O=C(Nc1cccc(Cl)c1)Nc1cccc(-c2cc3ccccc3[nH]2)c1", "% Inhibition": -11, "Z score": 1.32}, {"smiles": "CN(Cc1cc(-c2ccccc2)on1)C(=O)C[C@H]1CCOC1", "% Inhibition": -2, "Z score": 0.15}, {"smiles": "CC(C)c1cc(NS(=O)(=O)c2ccc(S(=O)(=O)NC3CC3)cc2)[nH]n1", "% Inhibition": -8, "Z score": 1.02}, {"smiles": "Cc1c(C(=O)NC[C@H]2Cc3ccccc3O2)ccc2cncn12", "% Inhibition": -14, "Z score": 1.87}, {"smiles": "COc1ccccc1O[C@@H](C)CNc1ccccn1", "% Inhibition": -3, "Z score": 0.39}, {"smiles": "CC1=C[C@@H](c2ccc(Cl)cc2)n2nc(NC(=O)c3ccccc3)nc2N1", "% Inhibition": -6, "Z score": 1.14}, {"smiles": "O=C1C[C@@H](c2ccccc2)N(C(=O)c2nccc3ccccc23)CCN1", "% Inhibition": -2, "Z score": 0.32}, {"smiles": "CC1(C)Cc2nc3ccccc3c(NCc3ccccc3)c2[C@@H](O)C1", "% Inhibition": 41, "Z score": -4.99}, {"smiles": "CCn1cc(Br)cc1C(=O)N[C@H]1CCc2nccn2C1", "% Inhibition": -3, "Z score": 0.65}, {"smiles": "CCc1ccc(C(=O)N2CCC(C(C)(C)O)CC2)[nH]1", "% Inhibition": -2, "Z score": 0.31}, {"smiles": "Cc1ccsc1C(=O)N1CCN(C[C@H](OCc2ccc(C#N)cc2)c2cccc(N3CCCC3)c2)CC1", "% Inhibition": 0, "Z score": -0.01}, {"smiles": "Cc1cc(C)n([C@@H](C)C(=O)NCCc2nnc(N)s2)n1", "% Inhibition": 0, "Z score": -0.03}, {"smiles": "Cc1cn[nH]c1NC(=O)Nc1ccccn1", "% Inhibition": -12, "Z score": 1.29}, {"smiles": "COCC1(CNC(=O)CNC(C)=O)CCCC1", "% Inhibition": -5, "Z score": 0.85}, {"smiles": "CC(C)n1nc(O)c2c(-c3cnn(C)c3)c3c(nc21)[nH]c(=O)n3C", "% Inhibition": 5, "Z score": -0.65}, {"smiles": "Cc1cc(C(=O)N2CCCNC(=O)[C@@H]2Cc2ccccc2)ns1", "% Inhibition": -2, "Z score": 0.31}, {"smiles": "CC(C)NC(=O)Nc1nc2cc3c(cc2s1)OCCO3", "% Inhibition": -8, "Z score": 0.95}, {"smiles": "CC1(C)C(=O)NCCN1C(=O)c1n[nH]c2c1CCC2", "% Inhibition": -9, "Z score": 1.02}, {"smiles": "C[C@@H]1CC=CC[C@H]1C(=O)NS(=O)(=O)c1ccnn1C", "% Inhibition": -9, "Z score": 1.49}, {"smiles": "O=C(NCCn1cc(-c2nc(-c3cccnc3)no2)nn1)c1cccs1", "% Inhibition": -18, "Z score": 3.4}, {"smiles": "CN1CCC[C@@H]1CCn1ccnc1-c1cc(C(C)(C)C)[nH]n1", "% Inhibition": -1, "Z score": 0.08}, {"smiles": "C[C@H](NCCS(=O)(=O)C(C)(C)C)C1CCC1", "% Inhibition": 0, "Z score": 0.03}, {"smiles": "COCCCN(Cc1cccc(OC)c1)C(=O)c1coc(CN)n1", "% Inhibition": -2, "Z score": 0.41}, {"smiles": "Cc1ccc(C(=O)N/C(=N/c2ccc3c(c2)OCCO3)NCc2c(C)nn(C)c2C)cc1", "% Inhibition": -5, "Z score": 0.85}, {"smiles": "COc1cc2c(cc1[C@H]1CC(=O)Nc3c1c(C1CC1)nn3C)OCCCO2", "% Inhibition": -12, "Z score": 2.34}, {"smiles": "Cc1cnc(C(C)CNC(=O)N2CCN(C3CCOCC3)C[C@H]2C)s1", "note": "(some centres not stated)", "% Inhibition": -6, "Z score": 0.78}, {"smiles": "CC(C)NC1CCN(Cc2sncc2Br)CC1", "% Inhibition": -36, "Z score": 4.22}, {"smiles": "CCNC(=O)CN(CC)C1CC2CCC1C2", "note": "(configuration not stated)", "% Inhibition": -5, "Z score": 0.48}, {"smiles": "NCC1CCCC1NC(=O)c1ccc(-c2ccccc2F)o1", "note": "(configuration not stated)", "% Inhibition": 4, "Z score": -0.44}, {"smiles": "O=C1CN(C(=O)Cc2noc3ccccc23)c2ccccc2N1", "% Inhibition": -21, "Z score": 2.19}, {"smiles": "O=C(Nc1cnc(Oc2ccccc2)nc1)c1ccc(Br)o1", "% Inhibition": -7, "Z score": 1.4}, {"smiles": "CC(C)n1ncnc1-c1ccc(C(=O)NCCN2CCCC[C@@H]2CO)cc1", "% Inhibition": -2, "Z score": 0.23}, {"smiles": "Cc1ccc(C)n1CC(=O)N1CCc2[nH]c3c(Br)cccc3c2C1", "% Inhibition": -7, "Z score": 0.86}, {"smiles": "CCn1nccc1[C@@H]1CCCN1C(=O)Nc1cc(Cl)c(OC)cc1OC", "% Inhibition": 0, "Z score": 0.01}, {"smiles": "CN1CN(C[C@@H]2C[C@H]2c2ccccc2)CC1=O", "% Inhibition": -4, "Z score": 0.72}, {"smiles": "CC(=O)Nc1ccc(C(=O)N2[C@@H](C)CCC2(C)C)nc1", "% Inhibition": 0, "Z score": -0.02}, {"smiles": "COc1ccc([C@@H]2C=C(c3ccccc3)N=C3NN=NN32)cc1", "% Inhibition": -11, "Z score": 1.67}, {"smiles": "Cc1cc(C)nc(NC(=O)N(C)Cc2c(C)noc2C)c1", "% Inhibition": 3, "Z score": -0.52}, {"smiles": "Cc1cccc(N(C)C(=O)c2ncoc2C2CCNCC2)c1", "% Inhibition": -5, "Z score": 0.94}, {"smiles": "CCc1cc(NCCc2cccnc2)ncn1", "% Inhibition": -8, "Z score": 1.2}, {"smiles": "Cc1nc(NCc2ccc(-c3noc(C)n3)cc2)c2cccnc2n1", "% Inhibition": -6, "Z score": 0.88}, {"smiles": "O=C(c1ccc(S(=O)(=O)c2ccc(Br)cc2)o1)N(Cc1cccc(Cl)c1)[C@H]1CCS(=O)(=O)C1", "% Inhibition": -7, "Z score": 0.94}, {"smiles": "COc1ccc(CN2CCc3oc(C)c(C(=O)N4CCCN(C)CC4)c3C2)cc1", "% Inhibition": -11, "Z score": 1.05}, {"smiles": "CCCC(=O)N1CCCC(C(=O)N[C@@H]2CCCC[C@H]2NC(=O)c2ccc(OC)cc2)C1", "note": "(some centres not stated)", "% Inhibition": -8, "Z score": 0.89}, {"smiles": "O=C(Cn1cccn1)NCc1cccnc1N1CCCCCCC1", "% Inhibition": -24, "Z score": 2.12}, {"smiles": "Cc1cnc(NC(=O)c2cncc(F)c2)o1", "% Inhibition": -2, "Z score": 0.28}, {"smiles": "COc1ccc2c(c1)[C@]1(CC2)NC(=O)N(Cc2nc(C)cs2)C1=O", "% Inhibition": 4, "Z score": -0.45}, {"smiles": "Cn1c(=O)[nH]c2ncc(-c3cccc(C(=O)NCC4(CO)COC4)c3)cc21", "% Inhibition": 25, "Z score": -2.84}, {"smiles": "Cc1cc(C)cc(NC(=O)C2CCN(S(=O)(=O)c3cc4c(cc3C)NC(=O)CO4)CC2)c1", "% Inhibition": -12, "Z score": 1.38}, {"smiles": "COc1nn(C)cc1NC(=O)[C@H]1C2CCC(CC2)[C@@H]1C(F)(F)F", "% Inhibition": -7, "Z score": 1.3}, {"smiles": "OC1(c2ccc(-c3ccc(F)cc3Cl)cc2)CCNCC1", "% Inhibition": -4, "Z score": 0.34}]}]}
